Reference: PubChem BioAssay AID488969 (Vanderbilt High Throughput Screening Facility, 2010)
In all, about 110,000 compounds were measured (“z-score”: median about -0.1, highest 2% from about 2 on). Some of the results follow.

Molecular target: Metabotropic glutamate receptor 8 (Rattus norvegicus) (UniProt P70579)
Test: mGluR8 Gi/Go-coupled signaling modulation – cell-based, rat, thallium flux, HTS, primary screen (AID 488969)
Settings: HEK293 rat mGluR8, GIRK (G protein-gated inwardly rectifying potassium channel) thallium flux, FluoZin2; at 10 µM; stronger effect = higher value; submaximal glutamate (EC20) added with thallium

UniProt P70579, sequence (P70579 whole entry, looked up): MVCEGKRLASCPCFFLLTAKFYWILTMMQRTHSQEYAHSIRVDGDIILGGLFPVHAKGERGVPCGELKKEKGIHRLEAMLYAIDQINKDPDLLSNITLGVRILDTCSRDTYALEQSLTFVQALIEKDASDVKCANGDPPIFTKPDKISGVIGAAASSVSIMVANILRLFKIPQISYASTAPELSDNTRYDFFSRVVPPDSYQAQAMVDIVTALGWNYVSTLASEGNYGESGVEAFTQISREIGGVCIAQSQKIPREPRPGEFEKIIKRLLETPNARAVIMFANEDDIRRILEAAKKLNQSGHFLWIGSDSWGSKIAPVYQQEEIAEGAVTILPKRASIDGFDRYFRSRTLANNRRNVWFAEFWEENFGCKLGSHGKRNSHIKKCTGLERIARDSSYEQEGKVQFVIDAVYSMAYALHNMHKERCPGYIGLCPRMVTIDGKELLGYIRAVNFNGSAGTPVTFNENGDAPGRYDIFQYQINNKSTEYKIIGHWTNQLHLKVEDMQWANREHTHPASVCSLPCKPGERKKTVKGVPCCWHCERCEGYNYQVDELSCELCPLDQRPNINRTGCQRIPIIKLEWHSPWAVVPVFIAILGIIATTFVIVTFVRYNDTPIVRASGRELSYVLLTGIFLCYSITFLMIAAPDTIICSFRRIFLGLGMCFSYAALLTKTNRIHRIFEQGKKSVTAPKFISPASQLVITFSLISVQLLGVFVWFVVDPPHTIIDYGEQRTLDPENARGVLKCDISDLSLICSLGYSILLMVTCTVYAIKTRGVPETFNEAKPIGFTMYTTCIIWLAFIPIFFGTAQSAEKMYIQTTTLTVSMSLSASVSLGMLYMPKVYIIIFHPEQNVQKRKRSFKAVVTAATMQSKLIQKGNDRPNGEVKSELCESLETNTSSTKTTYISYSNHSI

Row | SMILES | z-score
1 | CSc1nc(N(C)NC(=O)c2ccc(Cl)cc2)c2ccccc2n1 | -0.0629
2 | CCCNC(=O)Cn1cccc1C(=O)c1ccccc1 | -0.232
3 | O=C1c2oc3ccccc3c(=O)c2C(c2cccc(Br)c2)N1Cc1ccco1 (stereo unspecified) | -0.157
4 | Nc1ccc2c(c1)CCC2=O | -0.0288
5 | O=C(Cn1cnc2c(nnn2Cc2ccc(Cl)cc2)c1=O)NCc1ccco1 | 0.0401
6 | Cc1cc(C)n(CC2CC(=O)N(c3ccc(C)c(Cl)c3)C2=O)n1 (stereo unspecified) | -0.0305
7 | COc1ccc(/C=N/NC(=O)c2nn(-c3ccc(Cl)cc3)c(=O)c3c(N)scc23)cc1 | -0.151
8 | CCn1cc(C2C3=C(CC(C)(C)CC3=O)N(c3ccccc3)C3=C2C(=O)CC(C)(C)C3)c(C)n1 | -0.0273
9 | O=C(c1cccc(Cl)c1)c1nn(-c2ccccc2)c(=O)cc1C(F)(F)F | -0.401
10 | N#Cc1ccc(NC(=O)CCc2ccc(S(=O)(=O)N3CCOCC3)cc2)cc1 | -0.409
11 | Cc1cccc(C)c1NC(=O)/C(C#N)=C/c1ccsc1 | -0.11
12 | CCN1CCN(Cc2c(OC)ccc3ccccc23)CC1 | 0.735
13 | COc1cc(C)c(S(=O)(=O)N2CCOCC2)cc1C(C)C | 0.397
14 | NC(=O)NC(CC(=O)OCC(=O)NC(=O)NCc1ccco1)c1ccc(Cl)cc1 (stereo unspecified) | -0.0975
15 | CN(C)c1ccc(CN2CCCCC2)cc1 | -0.0849
16 | O=C(CCCN1C(=O)c2cccc3cccc(c23)C1=O)N1CCN(Cc2ccc3c(c2)OCO3)CC1 | -0.796
17 | CCOC(=O)C1CCCCN1Cc1cccc(OC)c1OC (stereo unspecified) | 0.109
18 | CCCCSc1nc2c(cc1C#N)CCC2 | 0.273
19 | N#Cc1c(NC(=O)CSc2nnnn2C2CCCCC2)sc2c1CCCC2 | -0.0604

Row | SMILES | z-score
20 | O=C1C2C3C=CC(C3)C2C(=O)N1c1cccc(-c2nc3ccccc3o2)c1 (stereo unspecified) | 0.102
21 | COc1ccc(CNc2ccc(C)cc2)cc1Br | -0.124
22 | COc1ccc(Nc2ncccc2C(=O)O)cc1 | -0.0336
23 | CC(=O)N/C(=C\c1cccc([N+](=O)[O-])c1)C(=O)NC(C)C | 0.0641
24 | CC(C)CCOc1ccc(C(CC(N)=O)C(=O)O)cc1 (stereo unspecified) | -0.256
25 | CC(=O)c1cccc(NC(=O)COc2ccccc2)c1 | -0.673
26 | Cc1sc(NC(=O)COc2ccccc2)c(C#N)c1-c1ccccc1 | 0.602
27 | CCOC(=O)c1cccc(NC(=O)CSc2nnc(COc3ccccc3)n2CC)c1 | -1.08
28 | CCOC(=O)N1CCN(C(=O)c2ccc3c(SCC(=O)O)c4c(nc3c2)CCCC4)CC1 | 0.527
29 | Cc1cc(S(=O)(=O)NCCc2ccccc2)c(C)s1 | -0.396
30 | COc1oc(-c2ccccc2)nc1C(F)(F)F | -0.327
31 | CSc1nc2c(c(=O)n1-c1ccccc1)SCC2 | 0.578
32 | Cc1ccc([N+](=O)[O-])c2cccnc12 | -0.158
33 | O=C(CN1CCCCCC1)Nc1ccc(Br)cc1Br | -0.316
34 | Cc1ccc(C(=O)c2c(NC(=O)c3ccccc3)sc(C)c2C)cc1 | -0.0472
35 | O=C(O)CNC(=O)c1nc(-c2ccccc2)n(-c2ccccc2)n1 | -0.225
36 | O=C(c1ccccc1)N1CCCCC(S(=O)(=O)c2ccc3ccccc3c2)C1=O (stereo unspecified) | -0.273
37 | O=C(Nc1ccc(NC(=O)c2cccs2)cc1)c1ccc(Br)o1 | 0.0278
38 | Cc1ccc(-n2nnnc2SCC(=O)NC2CCCc3ccccc32)cc1 (stereo unspecified) | -0.56

Row | SMILES | z-score
39 | CCn1cnc2sc(C(=O)N3CCN(Cc4ccc5c(c4)OCO5)CC3)c(C)c2c1=O | 2.58
40 | O=C(NCCCN1CCCC1)Nc1cccc2ccccc12 | -0.463
41 | COc1ccccc1C(=O)Nc1nc2ccc(S(C)(=O)=O)cc2s1 | 0.884
42 | C=CCN(CC(=O)NCc1ccc(F)cc1)C(=O)c1csnn1 | 0.333
43 | CSc1nc2nc3c(cn2n1)C(=O)CC(c1ccccc1)C3 (stereo unspecified) | -0.316
44 | CC(Oc1ccccc1Cl)c1nnc(N)s1 (stereo unspecified) | -0.454
45 | CC1CCCCN1C(=S)Nc1ccc2nc3n(c(=O)c2c1)CCCCC3 (stereo unspecified) | -0.133
46 | O=C(CSc1ccc(-c2ccc(F)cc2)nn1)N1CCCc2ccccc21 | -0.481
47 | COC(=O)c1ccc(Cn2cnc3c(cnn3-c3ccc(C)c(C)c3)c2=O)o1 | -0.107
48 | CCCS(=O)(=O)n1nc(-c2ccccc2)cc1N | -0.138
49 | S=C(NCCCc1ccccc1)Nc1ccc(Cl)cc1 | 0.355
50 | Fc1ccc(-c2nc3n(n2)Cc2ccccc2-3)cc1 | -0.577
51 | COc1ccc(CNC(=O)CCNS(=O)(=O)c2ccc(C)cc2)cc1 | -0.799
52 | Cc1ccc(S(=O)(=O)/N=C2/C=C(Sc3ncn[nH]3)C(=O)c3ccccc32)cc1 | -0.0201
53 | COc1ccccc1/C=C/CN1CCOCC1 | -0.249
54 | CCOC(=O)N1CCN(C(=O)CSc2nnc(-c3ccc(Cl)s3)o2)CC1 | 0.313
55 | CSc1nnc(-c2ccccc2Cl)n1N | 0.421
56 | COc1ccccc1OCC(=O)Nc1cc(S(=O)(=O)N2CCCCC2)ccc1N1CCCCC1 | -0.267
